Experimental data as given in article PMC6726739.
Results are given in words; binding and its absence hold for the method and conditions named. For part of these data: In cells and extracts the contact can be indirect. Some entries that bind do so weakly or less than the wild type. Sequences can lack the tags named with a protein.

T1: HopK1 in pGBKT-7 (Pseudomonas syringae pv. tomato DC3000) (UniProt Q88BH0)
T1 sequence: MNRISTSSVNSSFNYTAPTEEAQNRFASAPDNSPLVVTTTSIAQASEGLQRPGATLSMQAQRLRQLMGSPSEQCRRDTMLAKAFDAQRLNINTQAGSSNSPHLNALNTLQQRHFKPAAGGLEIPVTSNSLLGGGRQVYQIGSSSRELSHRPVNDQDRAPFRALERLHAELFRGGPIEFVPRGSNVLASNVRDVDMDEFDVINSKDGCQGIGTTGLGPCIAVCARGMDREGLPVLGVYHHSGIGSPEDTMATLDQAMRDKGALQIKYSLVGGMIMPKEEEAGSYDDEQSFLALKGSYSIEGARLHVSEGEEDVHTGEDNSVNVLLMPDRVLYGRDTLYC

T2: HopY1 in pGBKT-7 (Pseudomonas syringae pv. tomato DC3000) (UniProt Q88BF6)
T2 sequence: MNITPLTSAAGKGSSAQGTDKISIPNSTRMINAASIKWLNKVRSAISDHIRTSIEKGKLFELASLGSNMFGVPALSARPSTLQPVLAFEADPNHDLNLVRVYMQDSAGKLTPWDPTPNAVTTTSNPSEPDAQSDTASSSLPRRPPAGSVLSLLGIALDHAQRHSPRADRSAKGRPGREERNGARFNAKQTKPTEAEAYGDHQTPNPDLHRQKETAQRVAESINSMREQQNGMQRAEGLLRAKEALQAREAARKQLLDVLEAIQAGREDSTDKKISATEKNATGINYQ


Key:
[1] = target: GST-AvrPtoB^F479A (Pseudomonas syringae pv. tomato DC3000) (UniProt Q8RSY1); assay: pull-down; equimolar GST fusions from E. coli incubated with extracts of N. benthamiana leaves expressing EXO70B1-GFP, 4 °C, 4 h; GST binding beads 2 h; three washes with GST washing buffer (1.4 M NaCl, pH 7.3, 5 mM DTT); anti-GFP blot; only the target purified
[2] = target: GST-AvrPtoB_(1-410) (Pseudomonas syringae pv. tomato DC3000) (UniProt Q8RSY1); assay: as above
[3] = target: AvrPtoB^F479A fused to the Gal4 DNA binding domain (Pseudomonas syringae pv. tomato DC3000) (UniProt Q8RSY1); assay: two-hybrid; Matchmaker GAL4 Two-Hybrid System 3, yeast AH109; effectors and AvrPtoB forms in pGBKT-7 (BD), plant proteins in pGADT-7 (AD); growth on SD-Trp/-Leu/-His/-Ade, 5 days
[4] = target: AvrPtoB_(1-205) fused to the Gal4 DNA binding domain (Pseudomonas syringae pv. tomato DC3000) (UniProt Q8RSY1); assay: as above
[5] = target: AvrPtoB_(1-307) fused to the Gal4 DNA binding domain (Pseudomonas syringae pv. tomato DC3000) (UniProt Q8RSY1); assay: as above
[6] = target: AvrPtoB_(1-387) fused to the Gal4 DNA binding domain (Pseudomonas syringae pv. tomato DC3000) (UniProt Q8RSY1); assay: as above
[7] = target: AvrPtoB_(1-410) fused to the Gal4 DNA binding domain (Pseudomonas syringae pv. tomato DC3000) (UniProt Q8RSY1); assay: as above
[8] = target: AvrPtoB_(308-553) fused to the Gal4 DNA binding domain (Pseudomonas syringae pv. tomato DC3000) (UniProt Q8RSY1); assay: as above
[9] = target: HopH1 in pGBKT-7 (Pseudomonas syringae pv. tomato DC3000) (UniProt Q88A09); assay: as above
[10] = target: T1, HopK1 in pGBKT-7 (Pseudomonas syringae pv. tomato DC3000); assay: as above
[11] = target: HopO1-1 in pGBKT-7 (Pseudomonas syringae pv. tomato DC3000) (UniProt Q88BP8); assay: as above
[12] = target: T2, HopY1 in pGBKT-7 (Pseudomonas syringae pv. tomato DC3000); assay: as above

Binder	binding [1]	binding [2]	binding [3]	binding [4]	binding [5]	binding [6]	binding [7]	binding [8]	binding [9]	binding [10]	binding [11]	binding [12]
EXO70B1-GFP (protein, UniProt Q9FGH9 1-624) MAENGEEKLLAVARHIAKTLGHNESMADDILQIFSNFDGRFSREKLAEGQAGEDGSGVATLERALNSIDGQISRFVAADQPIWADPADSAAFLDTIDELVAIIREWSPMASEKPIGICLTRADDMMQQAMFRIEEEFRSLMERGAESFGLNPQGDAGAMNHRFDSEEEEDDDRDFNNGDDIQIPVAQPLTDYDLIIDALPSATINDLHEMAKRMLGAGFGKACSHVYSSCRREFLEESMSRLGLQKLSIEEVHKMPWQELEDEIDRWIKAANVALRILFPSERRLCDRVFFGFSSAADLSFMEVCRGSTIQLLNFADAIAIGSRSPERLFKVLDVFETMRDLMPEFESVFSDQFCSVLRNEAVTIWKRLGEAIRGIFMELENLIRRDPAKAAVPGGGLHPITRYVMNYLRAACRSRQTLEQVFEESNGVPSKDSTLLTVQMSWIMELLESNLEVKSKVYKDPALCYVFLMNNGRYIVQKVKDGDLGLLLGDDWIRKHNVKVKQYHMNYQRSSWNKMLGLLKVDNTAAGMNGLGKTMKEKLKQFNIQFDEICKVHSTWVVFDEQLKEELKISLARLLVPAYGSFIGRFQNLGDIGKNADKYIKYGVEDIEARINELFKGTTTGRK	binds	binds	–	–	–	–	–	–	–	–	–	–
EXO70B1, full length, fused to the Gal4 transactivation domain (protein, UniProt Q9FGH9 1-624) MAENGEEKLLAVARHIAKTLGHNESMADDILQIFSNFDGRFSREKLAEGQAGEDGSGVATLERALNSIDGQISRFVAADQPIWADPADSAAFLDTIDELVAIIREWSPMASEKPIGICLTRADDMMQQAMFRIEEEFRSLMERGAESFGLNPQGDAGAMNHRFDSEEEEDDDRDFNNGDDIQIPVAQPLTDYDLIIDALPSATINDLHEMAKRMLGAGFGKACSHVYSSCRREFLEESMSRLGLQKLSIEEVHKMPWQELEDEIDRWIKAANVALRILFPSERRLCDRVFFGFSSAADLSFMEVCRGSTIQLLNFADAIAIGSRSPERLFKVLDVFETMRDLMPEFESVFSDQFCSVLRNEAVTIWKRLGEAIRGIFMELENLIRRDPAKAAVPGGGLHPITRYVMNYLRAACRSRQTLEQVFEESNGVPSKDSTLLTVQMSWIMELLESNLEVKSKVYKDPALCYVFLMNNGRYIVQKVKDGDLGLLLGDDWIRKHNVKVKQYHMNYQRSSWNKMLGLLKVDNTAAGMNGLGKTMKEKLKQFNIQFDEICKVHSTWVVFDEQLKEELKISLARLLVPAYGSFIGRFQNLGDIGKNADKYIKYGVEDIEARINELFKGTTTGRK	–	–	binds	no binding	binds	binds	binds	no binding	binds	binds	binds	binds
